Source: patent US4820698A, “Antimicrobial agents and process for their manufacture” (The Procter & Gamble Company, priority 1986, dated 1989)
Values after ≈ are worked out from the molar mass of the structure shown. Like-named read-outs stand apart in the source and are kept apart here.

Tested on: E. Coli (G-), clinical isolate
Experiment: In vitro antibacterial activity, standard microdilution MIC assay
Format: cell-based
[1] = Escherichia coli, E. Coli (G-), clinical isolate, read-out: MIC

Row | Structure (SMILES) | MIC (E. Coli (G-), clinical isolate) | MIC [1] [µg/mL] | further results
1 | C=C(P(=O)(OC)OC)P(=O)(OC)OC [A, Tetramethyl ethenylidenebisphosphonate] | 520 µg/mL (≈ 2130 µM) |  | 
2 | C=C(P(=O)(OCC)OCC)P(=O)(OCC)OCC [B, Tetraethyl ethenylidenebisphosphonate] | 6,300 μg/ml |  | 
3 | C=C(P(=O)(OCCCC)OCCCC)P(=O)(OCCCC)OCCCC [C, Tetrabutyl ethenylidenebisphosphonate] |  | 25000 (≈ 60600 µM) | 
4 | C[C@@H]1O[C@@H]1P(=O)(O)O [D, Fosfomycin, reference compound] |  |  | MIC (Escherichia coli, read-out: MIC): 320 µg/mL (≈ 2320 µM)
5 | CC1(C)S[C@@H]2[C@H](NC(=O)Cc3ccccc3)C(=O)N2[C@H]1C(=O)O [E, Penicillin G, reference compound] |  | 260 (≈ 778 µM) | 
